In the supplement of paper PMC6206098:
± gives the uncertainty stated by the source. The sequences are guide strands of siRNAs; only the seed at positions 2 to 7 varies.

Tests used:
HeyA8 = assay: cell viability relative to lipid-only control; higher = less toxic; conditions: concentration: 10 nM; 96 h; Homo sapiens
Description: (§1)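 Arrayed screen of 4096 siRNA duplexes, each carrying one of all possible 6mer seeds at guide-strand positions 2-7 in a fixed neutral 19mer scaffold (constant flanks: U at position 1, then ACAUGUAAACCA, plus a 3' AA overhang). The passenger strand is 2'-O-methylated at positions 1-2 so only the guide strand loads into RISC. Duplexes were reverse-transfected at 10 nM with RNAiMAX in triplicate in 384-well plates; viability was read by CellTiter-Glo ATP content 96 h after transfection. Values are % viability normalised to lipid-only wells (HeyA8, H460, M565) or to siNT1 (3LL).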

H460 = assay: as above; conditions: concentration: 10 nM; 96 h; Homo sapiens
Description: as §1

M565 = assay: as above; conditions: concentration: 10 nM; 96 h; Mus musculus
Description: as §1

3LL = assay: cell viability relative to siNT1 control; HeyA8 human ovarian and H460 human lung cancer; M565 mouse liver and 3LL mouse lung cancer; siNT1 is a non-toxic control siRNA; higher = less toxic; conditions: concentration: 10 nM; 96 h; Mus musculus
Description: as §1
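For cell viability relative to lipid-only control in this document: reverse lipid transfection in 384-well plates, in triplicate, of duplexes on a non-toxic 19mer backbone with passenger strand 2′-O-methylated at positions 1 and 2, luminescence viability read-out.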
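For cell viability relative to siNT1 control in this document: Luminescence-based viability of cells reverse transfected in 384-well plates with lipid-complexed siRNAs built on a non-toxic 19mer backbone whose passenger strand carries 2′-O-methyl groups at positions 1 and 2, triplicates.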

Sequence	cell viability (HeyA8) [%]	cell viability (H460) [%]	cell viability (M565) [%]	cell viability (3LL) [%]
UGGUAUGACAUGUAAACCAAA	32.3 ± 1.1	56.2 ± 6.8	48.4 ± 3.4	59.8 ± 15
UUACCCGACAUGUAAACCAAA	74.1 ± 3.2	71.2 ± 6.2	50.9 ± 8.6	68.4 ± 3.9
UUCAGGCACAUGUAAACCAAA	22 ± 3.4	29.5 ± 3	18.7 ± 3.6	21.1 ± 2.2
UGAAGCCACAUGUAAACCAAA	8.52 ± 0.85	34 ± 2.1	5.03 ± 1.1	28.9 ± 5.3
UGUAAUAACAUGUAAACCAAA	88.2 ± 2	63 ± 3.5	76.8 ± 9.7	91.6 ± 9.3
UAUCCAUACAUGUAAACCAAA	83.2 ± 9.5	82.9 ± 8.3	72.6 ± 4.2	105 ± 6.4
UUUCUAUACAUGUAAACCAAA	89 ± 5.7	70.1 ± 9.8	43.6 ± 5.5	85.2 ± 3.7
UUUUAAUACAUGUAAACCAAA	101 ± 8.1	80.3 ± 9.1	95.6 ± 6.2	102 ± 7.5
UGUCUCUACAUGUAAACCAAA	5.97 ± 0.47	34.2 ± 8.4	10.5 ± 2.2	9.28 ± 1.8
UUAUAUGACAUGUAAACCAAA	89.2 ± 5.2	75.4 ± 17	97.9 ± 21	78.2 ± 7.6
UUCUCUCACAUGUAAACCAAA	71.4 ± 6.1	51.1 ± 11	57.3 ± 6.5	36.3 ± 10
UUCUUCUACAUGUAAACCAAA	45.6 ± 2.4	38 ± 0.89	106 ± 21	69.2 ± 9.2
UCCUCCCACAUGUAAACCAAA	35.6 ± 2.1	44.2 ± 1.4	58.9 ± 3	46.9 ± 11
UGGUAGGACAUGUAAACCAAA	6.21 ± 1.6	35.5 ± 4.5	16.3 ± 5.3	17.1 ± 2
UUGCAACACAUGUAAACCAAA	18 ± 2.7	16.3 ± 3.4	67.5 ± 0.95	9.23 ± 4
UACUCCAACAUGUAAACCAAA	60.7 ± 1.7	72.4 ± 8.1	58.5 ± 3.5	81.6 ± 5.6
UCGCUGCACAUGUAAACCAAA	30.8 ± 6.1	68.8 ± 2.8	9.85 ± 0.64	36.9 ± 8.1
UUCAUACACAUGUAAACCAAA	88.6 ± 7	50.6 ± 1.1	103 ± 12	62.9 ± 4.7
UGUUGUGACAUGUAAACCAAA	58.4 ± 6	59.2 ± 3.1	32.8 ± 5.7	88.2 ± 0.78

Sequence	cell viability (HeyA8) [%]	cell viability (H460) [%]	cell viability (M565) [%]	cell viability (3LL) [%]
UUAUGAGACAUGUAAACCAAA	33 ± 4.7	37 ± 6.6	86.1 ± 26	58 ± 0.87
UCUAACUACAUGUAAACCAAA	78.6 ± 9.5	65.3 ± 12	80.5 ± 20	93.1 ± 15
UUAGACUACAUGUAAACCAAA	99 ± 5.8	85.6 ± 16	91.4 ± 16	91.1 ± 7.9
UCAGCCCACAUGUAAACCAAA	55.5 ± 0.82	30.5 ± 5.8	10.4 ± 4.7	41.4 ± 7.6
UCGAUUAACAUGUAAACCAAA	86.8 ± 5.4	61 ± 3.2	70.2 ± 3.1	87.5 ± 16
UUAUACAACAUGUAAACCAAA	92 ± 4.6	74.5 ± 4	88.5 ± 13	84 ± 11
UGCGCCGACAUGUAAACCAAA	57.2 ± 2.8	51.6 ± 4.8	67.3 ± 6.2	81.6 ± 8.1
UGUGCUGACAUGUAAACCAAA	21 ± 24	59.8 ± 12	89.3 ± 16	74.6 ± 1.3
UAGGCAAACAUGUAAACCAAA	69.3 ± 9.5	59.4 ± 6	14.8 ± 2.1	64.7 ± 11
UUCUAUCACAUGUAAACCAAA	67.2 ± 3.1	48.4 ± 5.1	53 ± 13	69.2 ± 9
UAACCUGACAUGUAAACCAAA	59.5 ± 7.1	64.1 ± 4.8	69.6 ± 8.3	100 ± 2.8
UUUGGCGACAUGUAAACCAAA	98.6 ± 6.2	93.8 ± 9	79.1 ± 13	99.3 ± 5
UAAGAGAACAUGUAAACCAAA	89.8 ± 5.1	64.2 ± 4.6	66.5 ± 7.3	83.1 ± 3.9
UCCGUGAACAUGUAAACCAAA	77.5 ± 3.8	53 ± 7.5	42.4 ± 9.3	89.7 ± 13
UCAGGGGACAUGUAAACCAAA	39.5 ± 2.5	34.3 ± 6.2	15.8 ± 5.1	56.3 ± 10
UAGUUGCACAUGUAAACCAAA	5 ± 0.68	27.7 ± 7.5	13.8 ± 2.1	12.6 ± 0.41
UCUGCUCACAUGUAAACCAAA	63.9 ± 2.7	55 ± 4.1	45.3 ± 8.2	94.4 ± 9
UUAAGAUACAUGUAAACCAAA	52.4 ± 9.5	74.9 ± 7	71.2 ± 11	63.5 ± 4.7
UUUAGCAACAUGUAAACCAAA	98 ± 4.8	87.4 ± 14	83.7 ± 5.5	95.9 ± 6.1

Sequence	cell viability (HeyA8) [%]	cell viability (H460) [%]	cell viability (M565) [%]	cell viability (3LL) [%]
UUUGACCACAUGUAAACCAAA	37.7 ± 2.6	42.4 ± 4.8	24.6 ± 2	47.2 ± 1.3
UGUGUCCACAUGUAAACCAAA	37.4 ± 3	34.6 ± 5.8	22.9 ± 4	29.8 ± 14
UCCGCUGACAUGUAAACCAAA	79.6 ± 10	93.3 ± 21	80.8 ± 8.5	107 ± 18
UUGCCCAACAUGUAAACCAAA	88.2 ± 5.2	79 ± 6.8	81.2 ± 11	40.9 ± 8.1
UUUGAUGACAUGUAAACCAAA	91.3 ± 5.8	81.5 ± 7.3	91.2 ± 17	99.5 ± 6.7
UGGAUGGACAUGUAAACCAAA	17 ± 0.7	23.6 ± 2.5	8.12 ± 1.6	74.2 ± 8.2
UCCAUUUACAUGUAAACCAAA	64.2 ± 1.9	69.4 ± 5.5	75.8 ± 3.1	80.9 ± 17
UUGAGGAACAUGUAAACCAAA	65.9 ± 1.8	60.5 ± 12	14.5 ± 4.2	74.3 ± 5.1
UGGGCGAACAUGUAAACCAAA	1.47 ± 0.055	9.45 ± 2.8	29.8 ± 2.7	48.1 ± 9.6
UUGCCUUACAUGUAAACCAAA	24.1 ± 1.8	35.1 ± 7	30.9 ± 1.9	21.4 ± 0.8
UCCACGGACAUGUAAACCAAA	63.4 ± 4.8	51.7 ± 8.8	36.1 ± 7	90.8 ± 28
UGAAGCUACAUGUAAACCAAA	14.7 ± 2.5	35.5 ± 3.2	10.7 ± 0.81	13.4 ± 1.9
UAAUGAGACAUGUAAACCAAA	90.9 ± 7.6	82.7 ± 9.3	79 ± 15	81.6 ± 5
UCGGCAUACAUGUAAACCAAA	56.9 ± 2.3	58 ± 5.9	32.1 ± 4.4	71 ± 20
UCAAUCCACAUGUAAACCAAA	54.5 ± 5.6	50.7 ± 5.1	50.4 ± 1.8	75.4 ± 11
UGUCGGAACAUGUAAACCAAA	72.2 ± 4.2	82.3 ± 9	40.4 ± 12	71.3 ± 13
UGGCCCUACAUGUAAACCAAA	17.4 ± 1.8	31.1 ± 2.2	36.1 ± 9.2	29.9 ± 4.6
UUAGCUGACAUGUAAACCAAA	86.6 ± 2.7	95.8 ± 12	108 ± 13	92.8 ± 10
UAUAGUCACAUGUAAACCAAA	101 ± 5.3	77.6 ± 4.8	96.5 ± 12	100 ± 7.5
